# Where a chain is given by its changes, count along the chain named. The list shows a part of the results.
# B1: CCCUGAG (DNA:RNA)
# RNA: GGGAGACCGGAAUUCAGAUUGUCCCCCUGAGUUAAAUCCCGUCGUAGCCACCA
# DNA 1: CAATCTGAATTCCGGTCTCCC
# DNA 2: TGGTGGCTACGACGGGATT
# B2: CAGGUCA (DNA:RNA)
# RNA: B1 RNA with C26A, C27G, U28G, G29U, A30C, G31A
# DNA 1: CAATCTGAATTCCGGTCTCCC
# DNA 2: TGGTGGCTACGACGGGATT
# B3: UCGAGGC (DNA:RNA)
# RNA: B1 RNA with C25U, C27G, U28A, A30G, G31C
# DNA 1: CAATCTGAATTCCGGTCTCCC
# DNA 2: TGGTGGCTACGACGGGATT
# B4: CUGGCCA (DNA:RNA)
# RNA: B1 RNA with C26U, C27G, U28G, G29C, A30C, G31A
# DNA 1: CAATCTGAATTCCGGTCTCCC
# DNA 2: TGGTGGCTACGACGGGATT
# B5: UACGUCG (DNA:RNA)
# RNA: B1 RNA with C25U, C26A, U28G, G29U, A30C
# DNA 1: CAATCTGAATTCCGGTCTCCC
# DNA 2: TGGTGGCTACGACGGGATT
# B6: CCCAUGU (DNA:RNA)
# RNA: B1 RNA with U28A, G29U, A30G, G31U
# DNA 1: CAATCTGAATTCCGGTCTCCC
# DNA 2: TGGTGGCTACGACGGGATT
# B7: GGAGGGA (DNA:RNA)
# RNA: B1 RNA with C25G, C26G, C27A, U28G, A30G, G31A
# DNA 1: CAATCTGAATTCCGGTCTCCC
# DNA 2: TGGTGGCTACGACGGGATT
# B8: GAAUACG (DNA:RNA)
# RNA: B1 RNA with C25G, C26A, C27A, G29A, A30C
# DNA 1: CAATCTGAATTCCGGTCTCCC
# DNA 2: TGGTGGCTACGACGGGATT
# B9: GUUGACA (DNA:RNA)
# RNA: GGGAGACCGGAAUUCAGAUUGUCCGUUGACAUUAAAUCCCGUCGUAGCCACCA
# DNA 1: CAATCTGAATTCCGGTCTCCC
# DNA 2: TGGTGGCTACGACGGGATT
# B10: AUAUAAC (DNA:RNA)
# RNA: B1 RNA with C25A, C26U, C27A, G29A, G31C
# DNA 1: CAATCTGAATTCCGGTCTCCC
# DNA 2: TGGTGGCTACGACGGGATT
# B11: GUGUUAC (DNA:RNA)
# RNA: B1 RNA with C25G, C26U, C27G, G29U, G31C
# DNA 1: CAATCTGAATTCCGGTCTCCC
# DNA 2: TGGTGGCTACGACGGGATT
# B12: GGACGGG (DNA:RNA)
# RNA: B1 RNA with C25G, C26G, C27A, U28C, A30G
# DNA 1: CAATCTGAATTCCGGTCTCCC
# DNA 2: TGGTGGCTACGACGGGATT
# B13: UAACGCA (DNA:RNA)
# RNA: B9 RNA with G25U, U26A, U27A, G28C, A29G
# DNA 1: CAATCTGAATTCCGGTCTCCC
# DNA 2: TGGTGGCTACGACGGGATT
# B14: CGAAAUA (DNA:RNA)
# RNA: B9 RNA with G25C, U26G, U27A, G28A, C30U
# DNA 1: CAATCTGAATTCCGGTCTCCC
# DNA 2: TGGTGGCTACGACGGGATT
# B15: AGUUGUC (DNA:RNA)
# RNA: B1 RNA with C25A, C26G, C27U, A30U, G31C
# DNA 1: CAATCTGAATTCCGGTCTCCC
# DNA 2: TGGTGGCTACGACGGGATT
# B16: CAUUCGC (DNA:RNA)
# RNA: B1 RNA with C26A, C27U, G29C, A30G, G31C
# DNA 1: CAATCTGAATTCCGGTCTCCC
# DNA 2: TGGTGGCTACGACGGGATT
# B17: CCCAAGG (DNA:RNA)
# RNA: B1 RNA with U28A, G29A, A30G
# DNA 1: CAATCTGAATTCCGGTCTCCC
# DNA 2: TGGTGGCTACGACGGGATT
# B18: UACCAGU (DNA:RNA)
# RNA: B1 RNA with C25U, C26A, U28C, G29A, A30G, G31U
# DNA 1: CAATCTGAATTCCGGTCTCCC
# DNA 2: TGGTGGCTACGACGGGATT
# B19: AAAGGGU (DNA:RNA)
# RNA: B1 RNA with C25A, C26A, C27A, U28G, A30G, G31U
# DNA 1: CAATCTGAATTCCGGTCTCCC
# DNA 2: TGGTGGCTACGACGGGATT
# B20: UGGCACG (DNA:RNA)
# RNA: B9 RNA with G25U, U26G, U27G, G28C, A31G
# DNA 1: CAATCTGAATTCCGGTCTCCC
# DNA 2: TGGTGGCTACGACGGGATT
# B21: GAAUGUU (DNA:RNA)
# RNA: B1 RNA with C25G, C26A, C27A, A30U, G31U
# DNA 1: CAATCTGAATTCCGGTCTCCC
# DNA 2: TGGTGGCTACGACGGGATT
# B22: GGUAUCG (DNA:RNA)
# RNA: B9 RNA with U26G, G28A, A29U, A31G
# DNA 1: CAATCTGAATTCCGGTCTCCC
# DNA 2: TGGTGGCTACGACGGGATT
# B23: CUUAGAA (DNA:RNA)
# RNA: B1 RNA with C26U, C27U, U28A, G31A
# DNA 1: CAATCTGAATTCCGGTCTCCC
# DNA 2: TGGTGGCTACGACGGGATT
# B24: GGCGUGC (DNA:RNA)
# RNA: B9 RNA with U26G, U27C, A29U, C30G, A31C
# DNA 1: CAATCTGAATTCCGGTCTCCC
# DNA 2: TGGTGGCTACGACGGGATT
# B25: GUUACCC (DNA:RNA)
# RNA: B9 RNA with G28A, A29C, A31C
# DNA 1: CAATCTGAATTCCGGTCTCCC
# DNA 2: TGGTGGCTACGACGGGATT
# B26: UCUUACG (DNA:RNA)
# RNA: B1 RNA with C25U, C27U, G29A, A30C
# DNA 1: CAATCTGAATTCCGGTCTCCC
# DNA 2: TGGTGGCTACGACGGGATT
# B27: CGCAGUC (DNA:RNA)
# RNA: B1 RNA with C26G, U28A, A30U, G31C
# DNA 1: CAATCTGAATTCCGGTCTCCC
# DNA 2: TGGTGGCTACGACGGGATT
# B28: AUAUCAU (DNA:RNA)
# RNA: B1 RNA with C25A, C26U, C27A, G29C, G31U
# DNA 1: CAATCTGAATTCCGGTCTCCC
# DNA 2: TGGTGGCTACGACGGGATT
# B29: GAAGGCC (DNA:RNA)
# RNA: B9 RNA with U26A, U27A, A29G, A31C
# DNA 1: CAATCTGAATTCCGGTCTCCC
# DNA 2: TGGTGGCTACGACGGGATT
# B30: UAUUUCG (DNA:RNA)
# RNA: B1 RNA with C25U, C26A, C27U, G29U, A30C
# DNA 1: CAATCTGAATTCCGGTCTCCC
# DNA 2: TGGTGGCTACGACGGGATT
# B31: GAUCGCA (DNA:RNA)
# RNA: B9 RNA with U26A, G28C, A29G
# DNA 1: CAATCTGAATTCCGGTCTCCC
# DNA 2: TGGTGGCTACGACGGGATT
# Target: T1, RBFOX1 RRM (Homo sapiens, UniProt Q9NWB1 109-208)
# T1 sequence: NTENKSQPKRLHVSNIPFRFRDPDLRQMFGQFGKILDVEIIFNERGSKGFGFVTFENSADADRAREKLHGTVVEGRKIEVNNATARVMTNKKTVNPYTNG
# Assay: EMSA; HiTS-Eq, 1 nM pool, 10 min; buffer printed only for the single-RNA assays: 10 mM Tris pH 7.5, 150 mM NaCl, 3.4 mM EDTA, 0.001% NP-40, 30 C
# Details: tags: His6 N-terminal (pET28a); label: 5' 32P
# Summary of the method: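 A pool of RNA with 7 randomized nucleotides, 5′-radiolabelled and with DNA-annealed flanks, was equilibrated at 1 nM for 10 min in 50 µL with purified RbFox RRM, wild type or mutant, across increasing protein concentrations. Free RNA was separated by 8% native PAGE, excised, reverse-transcribed, barcoded by PCR and sequenced. Relative association constants were obtained from read-count changes of each RNA species versus the control reaction and normalised to the cognate motif.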
row,Binder,binding signal
1,B1,0.00564 KA relative to UGCAUGU
2,B2,0.00946 KA relative to UGCAUGU
3,B3,0.0115 KA relative to UGCAUGU
4,B4,0.0131 KA relative to UGCAUGU
5,B5,0.014 KA relative to UGCAUGU
6,B6,0.00331 KA relative to UGCAUGU
7,B7,0.0147 KA relative to UGCAUGU
8,B8,0.00661 KA relative to UGCAUGU
9,B9,0.0097 KA relative to UGCAUGU
10,B10,0.00176 KA relative to UGCAUGU
11,B11,0.0181 KA relative to UGCAUGU
12,B12,0.0204 KA relative to UGCAUGU
13,B13,0.0094 KA relative to UGCAUGU
14,B14,0.00179 KA relative to UGCAUGU
15,B15,0.0173 KA relative to UGCAUGU
16,B16,0.00716 KA relative to UGCAUGU

row,Binder,binding signal
1,B17,0.00883 KA relative to UGCAUGU
2,B18,0.00668 KA relative to UGCAUGU
3,B19,0.00943 KA relative to UGCAUGU
4,B20,0.0541 KA relative to UGCAUGU
5,B21,0.0282 KA relative to UGCAUGU
6,B22,0.00827 KA relative to UGCAUGU
7,B23,0.00737 KA relative to UGCAUGU
8,B24,0.0292 KA relative to UGCAUGU
9,B25,0.0047 KA relative to UGCAUGU
10,B26,0.0065 KA relative to UGCAUGU
11,B27,0.01 KA relative to UGCAUGU
12,B28,0.00114 KA relative to UGCAUGU
13,B29,0.0133 KA relative to UGCAUGU
14,B30,0.0112 KA relative to UGCAUGU
15,B31,0.0149 KA relative to UGCAUGU

# — PMC9911399, “Two distinct binding modes provide the RNA-binding protein RbFox with extraordinary sequence specificity”
